Laboratory results: PubChem BioAssay AID1865 (National Center for Advancing Translational Sciences (NCATS), 2009)
Several values for one entry are separate records, joined by “and”; a condition that tells them apart may be missing. Equal values may be shown once. Among all 280,000 compounds or so, about 540 (0.19%) were called active. This list was built around the results that the source calls inconclusive (neither active nor inactive); the mix of calls is not that of the screen. Calls follow the shape of the dose curve; as a rule, active = well fitted activation curve with a large enough effect; inconclusive = small, poorly fitted or top-dose-only effect; inactive = flat fitted curve, though single readings scatter. Where the call is inconclusive, the potency comes from a doubtful curve fit. A structure can be active in one record and inactive in another.

Assay: Quantitative High-Throughput Screen for Regulators of Epigenetic Control; also: nearly all actives have a fitted effect of over 60% in size; as to GFP activation: % of control where 0% means no effect
Conditions: murine LDR cells, GFP reporter derepression, 30 h; GFP activation: at 53.9 µM (top of the series)
In short: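 Murine LDR cells carrying a silenced, genomically integrated CMV-driven GFP reporter were exposed to compound for 30 hours at 37 C. After PBS washes, GFP-positive cells (20–120 um objects) were counted by laser-scanning microplate cytometry.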
Potency is read from the fitted curve at half-maximal effect; tags tell the direction and shape of the fitted curve.

Row | Compound | Potency | GFP activation
1 | CC1CCN(Cc2ccc(-c3nnn(CC(=O)Nc4ccccc4Cl)n3)cc2)CC1 | inconclusive: 14.1 µM [activator, single point] | –
2 | O=C(CCS(=O)(=O)c1nc(-c2ccc3c(c2)OCO3)cc(C(F)(F)F)n1)Nc1ccccc1F | inconclusive: 35.5 µM [activator, single point] | –
3 | COc1cccc(Cn2c(=O)n(Cc3ccco3)c(=O)c3oc4ccccc4c32)c1 | inconclusive: 10 µM [activator, partial curve, poor fit] | –
4 | COc1ccccc1N1C(=O)C2CC(C)=C(C)CC2C1=O (centres undefined) | inconclusive: 11.2 µM [activator, single point] | –
5 | Cc1cc(NC(=O)c2coc(=O)c(Br)c2)ccc1C(C)C | inconclusive: 15.8 µM [activator, single point] | –
6 | COc1cccc(-n2nnc3c(=O)n(Cc4ccccc4Cl)cnc32)c1 | inconclusive: 35.5 µM [activator, single point] | –
7 | O=C(OCC(=O)c1ccc[nH]1)c1ccccc1 | inconclusive: 2.24 µM [activator, partial curve] | –
8 | O=[N+]([O-])c1ccc(N/N=C/c2c[nH]c3ccccc23)c(S(=O)(=O)Nc2ccc(Cl)cc2)c1 | inconclusive: 15.8 µM [activator, single point] | –
9 | CCN1C(=O)/C(=C\N2CCN(c3cccc(Cl)c3)CC2)SC1=S | inconclusive: 25.1 µM [activator, single point] | –
10 | Cc1ccn2c(Nc3ccc(F)cc3)c(-c3ccccn3)nc2c1 | – | inactive: -0.449%
11 | C=CCNC(=O)NC(=O)COC(=O)/C(C#N)=C/c1cc(C)n(CCC(C)C)c1C | inconclusive: 17.8 µM [activator, single point] | –
12 | NS(=O)(=O)c1ccc(NC(=S)NC(=O)c2ccc3c(c2)OCO3)cc1 | inconclusive: 14.1 µM [activator, single point] | –
13 | COc1cccc(CN(C)C(=O)c2cc(COc3ccc4ncccc4c3)on2)c1 | – | inactive: 5.93%
14 | CCOC(=O)/C(=C\c1ccc([N+](=O)[O-])cc1)C(=O)c1cc(C(C)=O)c(Nc2ccccc2)s1 | inconclusive: 5.62 µM [activator, single point] | –
15 | COc1ccc2nc(NC(=O)c3nc(S(=O)(=O)Cc4ccccc4)ncc3Cl)sc2c1 | inconclusive: 5.62 µM [activator, single point] | –
16 | O=Cc1ccc(OCc2cccc(C(F)(F)F)c2)cc1O | inconclusive: 12.6 µM [activator, single point] | –
17 | COc1ccc(N=c2oc3c(OC)cccc3cc2C(=O)NCc2ccco2)cc1OC | active: 12.6 µM | –
18 | O=Cc1c2[nH]c3ccccc3c2cc2[nH]c3ccccc3c12 | inactive and active: 10 µM and active: 12.6 µM | –
19 | Cc1ccc(S(=O)(=O)NCc2c(-c3ccccc3)c3cc(Cl)ccc3[nH]c2=O)cc1 | inconclusive: 35.5 µM [activator, single point] | –
20 | CC1=C(C(=O)OCc2ccc3c(c2)OCO3)C(c2ccc(Cl)cc2)NC(=O)N1 (centres undefined) | – | inactive: 0.781%
21 | Cc1ccc2c(CN3CCCc4ccccc43)cc(=O)oc2c1C | inconclusive: 15.8 µM [activator, partial curve] | –
22 | O=C(COC(=O)c1sc2ccccc2c1Cl)Nc1ncc(Cl)cc1Cl | inconclusive: 25.1 µM [activator, single point] | –
23 | COc1ccc2nc3ccccc3nc2c1NC(=O)c1ccc(Cl)cc1Cl | inconclusive: 31.6 µM [activator, single point] | –

Row | Compound | Potency | GFP activation
24 | Cc1cc(-c2n[nH]c(=S)n2-c2ccccc2C)cs1 | inconclusive: 25.1 µM [activator, single point] | –
25 | CCCCC/C=C\C/C=C\C/C=C\CCCCCCC(=O)NCCc1ccc(O)c(O)c1 | inconclusive: 35.5 µM [activator, single point] | –
26 | C=C(C)Cn1c(SCC(=O)Nc2cc(C)ccc2C)nc2sc3c(c2c1=O)CCCC3 | inconclusive: 35.5 µM [activator, single point] | –
27 | COC(=O)C1=C(C)NC(=O)/C1=C\c1cc(C)n(-c2c(C)cccc2C)c1C | – | inactive: -2.9%
28 | CCN(CC)C(=O)C1CCCN(c2ccc([N+](=O)[O-])cc2/C=N/NC(=O)c2cccc(Br)c2)C1 (centres undefined) | inconclusive: 35.5 µM [activator, single point] | –
29 | COc1cc(NC(=O)Cn2ccn(Cc3ccccc3OC)c(=O)c2=O)cc(OC)c1 | inconclusive: 20 µM [activator, single point] | –
30 | Cc1c(C(=O)NCc2ccc(F)cc2)sc2nc(-c3ccccc3)cn12 | inconclusive: 15.8 µM [activator, single point] | –
31 | O=C(Nc1nnc(S(=O)(=O)N2CCCC2)s1)c1ccc(F)cc1 | inconclusive: 35.5 µM [activator, single point] | –
32 | N#Cc1c(-c2ccco2)cc(C2CC2)nc1N | – | inactive: -0.49%
33 | Cc1cccc(CSC(Nc2ccc(F)cc2)=C(C#N)C#N)c1 | – | inactive: 0%
34 | CN(C)c1ccc(C(CN)c2c[nH]c3ccccc23)cc1 (centres undefined) | – | inactive: -1.61%
35 | Cc1occc1C(=O)N/N=C/C1=C(N2CCOCC2)C(=C\c2ccc(Cl)cc2Cl)/CC1 | inconclusive: 11.2 µM [activator, partial curve] | –
36 | CCOc1ccc(S(=O)(=O)NCCc2csc3nc(-c4cccc(C)c4)nn23)cc1 | – | inactive: 1.55%
37 | CCc1ccc2c(c1)c(=O)c(C(=O)c1ccc(C)cc1)cn2CC(=O)Nc1ccccc1C | inconclusive: 31.6 µM [activator, single point] | –
38 | S=C(NCCc1ccccc1)Nc1ccc(Br)cn1 | – | inactive: -1.2%
39 | COc1cccc(NC(=O)CSc2nc3ccccc3c3nc4ccccc4n23)c1 | inconclusive: 20 µM [activator, single point] | –
40 | Cc1c(NC(=O)c2coc(=O)c(Br)c2)c(=O)n(-c2ccccc2)n1C | inconclusive: 35.5 µM [activator, single point] | –
41 | CCn1ncc(Br)c1C(=O)Nc1ccc(F)c([N+](=O)[O-])c1 | inconclusive: 28.2 µM [activator, single point] | –
42 | O=C(NCc1cccs1)c1nn(-c2ccccc2F)nc1CO | inconclusive: 0.02 µM [activator, full curve, poor fit] | –
43 | COc1ccc(NC(=O)c2cc(S(=O)(=O)N3CCCCC3)cn2C)cc1Cl | – | inactive: 5.92%
44 | C=CCSc1ncc(CO)n1Cc1ccccc1 | – | inactive: -1.61%
45 | CCCc1nc2oc3c(=O)[nH]cnc3c2c2c1CCCC2 | inconclusive: 28.2 µM [activator, single point] | –
46 | CCN1C(=O)/C(=C\C=C2/C=CC=CN2CC)SC1=S | inconclusive: 17.8 µM [activator, single point] | –

Row | Compound | Potency | GFP activation
47 | CN(C)c1ccc(NC2=C([N+](=O)[O-])CS(=O)(=O)C2)cc1 | active: 15.8 µM | –
48 | CCN1C(=O)C(CC(=O)NCCc2ccccc2)N(NC(=O)c2cccnc2)C1=S (centres undefined) | – | inactive: 6.37%
49 | NS(=O)(=O)c1ccc(NC(=O)CN2CCc3ccccc32)cc1 | – | inactive: 0.0907%
50 | CC1=C(C(=O)OCc2ccc3c(c2)OCO3)C(c2ccccc2)NC(=O)N1 (centres undefined) | – | inactive: 6.9%
51 | Cn1c(N2CCOCC2)c(/C=N/OC(=O)c2cccnc2Cl)c2ccccc21 | – | inactive: 1.28%
52 | Cc1ccc(C(=O)N2CCN(c3ccc(F)cc3)CC2)cc1NC(=O)c1nsc2ccccc12 | inconclusive: 3.16 µM [activator, single point] | –
53 | CCCCNC(=O)c1cc2n(n1)CCCN(Cc1ccc(C)cc1)C2=O | inconclusive: 7.08 µM [activator, single point] | –
54 | Cc1sc2ncnc(N/N=C/c3ccccc3O)c2c1C | – | inactive: -0.98%
55 | CC(C)Cn1c(N)c(C(=O)NCc2cccs2)c2nc3ccccc3nc21 | inconclusive: 12.6 µM [activator, single point] | –
56 | O=C(C1CC1)N1CCC(c2nc(-c3ccc(S(=O)(=O)NCC4CCCO4)cc3)no2)CC1 (centres undefined) | – | inactive: 0%
57 | Cc1ccccc1CNc1ccc(C(CC(N)=O)NC(=O)c2ccc(Br)cc2)cc1[N+](=O)[O-] (centres undefined) | inconclusive: 35.5 µM [activator, single point] | –
58 | O=C(CCN1CCCCC1)NNC(=S)NC(=O)c1ccc(Br)cc1 | inconclusive: 35.5 µM [activator, single point] | –
59 | CCSc1ncc(Cl)c(C(=O)Nc2sc3c(c2C(=O)NCCCOC)CCCC3)n1 | active: 3.55 µM | –
60 | COCCN(CCOC)c1nc(C)nc2c1nc(-c1ccccc1)n2CCCN(C)C | – | inactive: -2.14%
61 | C=CC(C1=CC(=O)C(OC)=C(OC)C1=O)c1ccccc1 (centres undefined) | – | inactive: 0.218%
62 | COc1cc2c3nnc(-c4ccc(F)cc4)c-3cn(Cc3ccc(F)cc3)c2cc1OC | inconclusive: 22.4 µM [activator, single point] | –
63 | Nn1c(SCc2nc3ccccc3[nH]2)nnc1-c1cccnc1 | inconclusive: 35.5 µM [activator, single point] | –
64 | COc1cc(CNC(=O)c2ccc3c(c2)c(C)c(C)n3Cc2cccc(C)c2)cc(OC)c1OC | inconclusive: 35.5 µM [activator, single point] | –
65 | Cc1cc2oc(=O)cc(Cn3ncc(Cl)c(Cl)c3=O)c2cc1Cl | inconclusive: 4.47 µM [activator, single point] | –
66 | COc1ccc(Nc2cc(C(=O)NCCCN3CCN(c4ccccc4F)CC3)c3ccccc3n2)c(OC)c1 | – | inactive: -0.878%
67 | COC(=O)c1ccc(NC(=S)N2CCC(C(N)=O)CC2)cc1 | – | inactive: -1.04%
68 | CN(C)C=Nc1c(Br)cc(Br)c2nonc12 | inconclusive: 22.4 µM [activator, single point] | –
69 | O=C(CSc1ncccc1C(=O)Oc1ccccc1Cl)Nc1ccccc1Cl | inconclusive: 3.98 µM [activator, partial curve] | –
